The list shows a part of the results. Values were computed here from the reads of four pooled replicates and scatter widely.
biological target: T1, Pho4 (S. cerevisiae) (UniProt P07270); assay: relative binding free energy (BET-seq); higher = weaker binding; conditions: reference: library average
T1 sequence: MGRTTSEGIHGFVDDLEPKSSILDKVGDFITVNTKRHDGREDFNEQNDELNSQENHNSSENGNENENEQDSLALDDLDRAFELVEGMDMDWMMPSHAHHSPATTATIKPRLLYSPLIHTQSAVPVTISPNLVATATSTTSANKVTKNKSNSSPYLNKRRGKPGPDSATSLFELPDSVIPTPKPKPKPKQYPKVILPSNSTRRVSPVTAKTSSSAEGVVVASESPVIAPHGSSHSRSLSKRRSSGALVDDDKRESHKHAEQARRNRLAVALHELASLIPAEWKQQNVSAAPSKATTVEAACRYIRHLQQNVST

| Sequence | relative binding free energy |
| --- | --- |
| GCTGGCACGTGAAGGA | 0.24 kcal/mol |
| TCGTTCACGTGGAGGA | 0.22 kcal/mol |
| TCTTGCACGTGGGGAT | -0.01 kcal/mol |
| AGGATCACGTGTTAAT | 0.24 kcal/mol |
| AATGTCACGTGGATAG | 0.04 kcal/mol |
| GGTTGCACGTGTGTCC | 0.09 kcal/mol |
| GGTCTCACGTGATGGA | 0.34 kcal/mol |
| CAGGGCACGTGGAAGG | 0.04 kcal/mol |
| TACGGCACGTGATTTG | 0.03 kcal/mol |
| TTCATCACGTGGTTGC | 0.17 kcal/mol |
| TGGCACACGTGTGAAT | 0.27 kcal/mol |
| TGTACCACGTGATGTT | -0.03 kcal/mol |
| GTAGTCACGTGGGTTA | 0 kcal/mol |
| TATGTCACGTGGTTAA | 0.17 kcal/mol |
| GACGGCACGTGTGTGC | 0.02 kcal/mol |
| TGTTCCACGTGTCGGT | 0 kcal/mol |
| ATGAACACGTGTTGTA | -0.01 kcal/mol |
| GGGGTCACGTGACGGC | 0.35 kcal/mol |
| GAGCTCACGTGGATTG | 0.33 kcal/mol |
| TTGGCCACGTGTGTGA | -0.05 kcal/mol |
| TCGGTCACGTGCGGGT | 0.05 kcal/mol |
| TTAGTCACGTGGTAAG | 0.19 kcal/mol |
| GGTGTCACGTGGCAAG | -0.05 kcal/mol |
| GGAAGCACGTGAGGTA | 0.15 kcal/mol |
| TGTCTCACGTGGGTCT | 0.09 kcal/mol |

| Sequence | relative binding free energy |
| --- | --- |
| TTTAGCACGTGCATGA | -0.01 kcal/mol |
| TTGGTCACGTGTTGTA | 0.12 kcal/mol |
| TTTGTCACGTGTTTCA | 0.13 kcal/mol |
| GTATCCACGTGGCTGT | 0.06 kcal/mol |
| TGGCACACGTGGTCGT | -0.1 kcal/mol |
| AGGAACACGTGGGGGA | -0.14 kcal/mol |
| GTTGTCACGTGGATGA | 0.12 kcal/mol |
| TGGGACACGTGGCTAG | -0.18 kcal/mol |
| GGATACACGTGGGGTT | 0.02 kcal/mol |
| AAGGGCACGTGAGAGC | 0.08 kcal/mol |
| ACAGGCACGTGTGTGT | -0.18 kcal/mol |
| TTATACACGTGTATTG | 0.11 kcal/mol |
| TGTGTCACGTGCGCGT | -0.15 kcal/mol |
| TTAAACACGTGGAGGG | -0.01 kcal/mol |
| TATCTCACGTGGGTGG | 0.13 kcal/mol |
| CGTATCACGTGATAGG | 0.18 kcal/mol |
| TGTAGCACGTGGTCAT | -0.09 kcal/mol |
| ATTGGCACGTGAGCTA | -0.05 kcal/mol |
| CATTACACGTGTAAGG | 0.25 kcal/mol |
| ATCGTCACGTGAGGGC | 0.1 kcal/mol |
| CGTATCACGTGCTAGG | 0.15 kcal/mol |
| TTGGGCACGTGGCGAT | -0.11 kcal/mol |
| TGTACCACGTGTGGGT | -0.09 kcal/mol |
| TCAGTCACGTGGGTCG | -0.18 kcal/mol |
| AATTGCACGTGATGCT | 0.23 kcal/mol |

| Sequence | relative binding free energy |
| --- | --- |
| TTCATCACGTGTAGTC | 0.24 kcal/mol |
| TAATTCACGTGCTTGT | 0.24 kcal/mol |
| GTAGGCACGTGTGCGG | -0.1 kcal/mol |
| GTGGTCACGTGAGATG | 0.42 kcal/mol |
| CGGGGCACGTGATATT | -0.03 kcal/mol |
| CTGGGCACGTGCGGGT | -0.09 kcal/mol |
| GTGGGCACGTGAATCG | 0.21 kcal/mol |
| TTATTCACGTGATGAA | 0.3 kcal/mol |
| TTGGGCACGTGTGTAT | -0.01 kcal/mol |
| AGGTGCACGTGGAACT | 0.06 kcal/mol |
| GTTGTCACGTGGGCAG | 0.04 kcal/mol |
| TGAGGCACGTGCGTGG | -0.12 kcal/mol |
| TGTTTCACGTGGTCTG | 0.28 kcal/mol |
| TGGTACACGTGAGGCT | 0.39 kcal/mol |
| ATGTACACGTGGCGAG | -0.11 kcal/mol |
| CTGGGCACGTGGAATG | -0.12 kcal/mol |
| ATAGTCACGTGTTTAG | 0.11 kcal/mol |
| AGTGGCACGTGTTGCA | -0.26 kcal/mol |
| TTTTTCACGTGCGGGC | 0.23 kcal/mol |
| GCTGGCACGTGGGCGA | -0.27 kcal/mol |
| TGTGTCACGTGCGTCT | 0.08 kcal/mol |
| ATGTGCACGTGTGGCG | -0.02 kcal/mol |
| AACGGCACGTGTTGGG | -0.1 kcal/mol |
| TGAAGCACGTGGTTGG | -0.14 kcal/mol |
| GATCTCACGTGAAGGG | 0.31 kcal/mol |

| Sequence | relative binding free energy |
| --- | --- |
| GGCGACACGTGAAGGG | 0.32 kcal/mol |
| GTGTACACGTGTCGCG | 0.1 kcal/mol |
| CAATACACGTGGGTTT | 0.03 kcal/mol |
| GTTAACACGTGTGAGG | 0.11 kcal/mol |
| GTGAGCACGTGGTGCT | -0.1 kcal/mol |
| AAGGACACGTGGTGTG | -0.09 kcal/mol |
| GGACTCACGTGTCGGG | 0.31 kcal/mol |
| TTGTTCACGTGAAGTC | 0.4 kcal/mol |
| TGCCTCACGTGGAGGG | 0.16 kcal/mol |
| GGATTCACGTGATAGT | 0.35 kcal/mol |
| TCAAGCACGTGGTCGG | -0.12 kcal/mol |
| GGCTTCACGTGTGTGC | 0.25 kcal/mol |
| TGACTCACGTGTTGGT | 0.18 kcal/mol |
| GCGGACACGTGTTTGT | -0.12 kcal/mol |
| GTGTGCACGTGGCGTA | -0.13 kcal/mol |
| TGGGTCACGTGAGAGT | 0.25 kcal/mol |
| TATGACACGTGGTCGG | -0.13 kcal/mol |
| GTCTTCACGTGTAATG | 0.25 kcal/mol |
| TTGGGCACGTGGTGGG | -0.07 kcal/mol |
| GAGAGCACGTGTGGAG | -0.26 kcal/mol |
| ATTATCACGTGTCGGC | 0.3 kcal/mol |
| GGGCACACGTGGGAGT | 0.04 kcal/mol |
| AGTTTCACGTGCTAAG | 0.25 kcal/mol |
| TTTAACACGTGTAGTT | 0.05 kcal/mol |
| TACTGCACGTGGATAG | 0.07 kcal/mol |

| Sequence | relative binding free energy |
| --- | --- |
| GTGGGCACGTGGTGTT | -0.15 kcal/mol |
| TGGAGCACGTGCATGG | 0.04 kcal/mol |
| TGAGTCACGTGAGTAG | 0.16 kcal/mol |
| ATGGGCACGTGAGGCT | 0.15 kcal/mol |
| GTATTCACGTGTGGCA | 0.23 kcal/mol |
| CTGTACACGTGGGGGA | -0.11 kcal/mol |
| ATTCTCACGTGGTTGT | 0.1 kcal/mol |
| GGTTACACGTGAGAAG | 0.34 kcal/mol |
| CGCGGCACGTGGGTGA | -0.24 kcal/mol |
| GGTAGCACGTGTATGT | -0.01 kcal/mol |
| TTACTCACGTGGGGAA | 0.1 kcal/mol |
| TCGGTCACGTGGTTGA | 0.17 kcal/mol |
| GGTGCCACGTGCGGGA | -0.15 kcal/mol |
| ACTGGCACGTGAAGTT | 0.23 kcal/mol |
| GTGGTCACGTGGACAA | 0.18 kcal/mol |
| TGTGTCACGTGAAAGA | 0.41 kcal/mol |
| CTTTGCACGTGTAATG | 0.23 kcal/mol |
| TTGTTCACGTGTGTGG | 0.3 kcal/mol |
| TCGGCCACGTGGTGGA | -0.1 kcal/mol |
| AATGACACGTGATGTT | 0.15 kcal/mol |
| TCTTTCACGTGCTTTG | 0.2 kcal/mol |
| AGGCGCACGTGTGAGT | -0.03 kcal/mol |
| TTAAGCACGTGGTTCG | -0.21 kcal/mol |
| TTACGCACGTGTGAGT | -0.07 kcal/mol |
| GGCATCACGTGGAGGG | 0.16 kcal/mol |

| Sequence | relative binding free energy |
| --- | --- |
| ATCGGCACGTGGGATG | -0.13 kcal/mol |
| TGTTCCACGTGTTAGA | -0.01 kcal/mol |
| CTTTTCACGTGTGAGA | 0.3 kcal/mol |
| AGAGTCACGTGGTAGT | 0.07 kcal/mol |
| AAGGGCACGTGTCGCT | -0.05 kcal/mol |
| TGCGACACGTGTGCGG | 0.11 kcal/mol |
| AGGTGCACGTGGATTT | 0.03 kcal/mol |
| AAATACACGTGGTGTT | 0 kcal/mol |
| TGTGTCACGTGCGAAT | 0.11 kcal/mol |
| AGTATCACGTGTAGAA | 0.35 kcal/mol |
| GGGGGCACGTGATTCA | 0.04 kcal/mol |
| CGCGTCACGTGGAGGT | 0.07 kcal/mol |
| ATATACACGTGGTGTC | -0.1 kcal/mol |
| GTGGGCACGTGGGACA | -0.09 kcal/mol |
| TGGCGCACGTGGCTGA | -0.1 kcal/mol |
| TGTATCACGTGTAAAA | 0.17 kcal/mol |
| ATGTGCACGTGATGAA | 0.12 kcal/mol |
| TAGGTCACGTGGTCAA | 0.01 kcal/mol |
| GTTTGCACGTGTATTG | 0.06 kcal/mol |
| GTCACCACGTGTTGGT | -0.04 kcal/mol |
| TAAGGCACGTGTTCTA | -0.02 kcal/mol |
